{"source": "PubChem BioAssay AID686978", "about": "(National Center for Advancing Translational Sciences (NCATS), 2013)", "note": "Among all 420,000 compounds or so, about 64,000 (15%) were called active. The inconclusive results got no clear call from the source; some entries with a clear call stand among them for comparison. Calls follow the shape of the dose curve; as a rule, active = well fitted inhibition curve with a large enough effect; inconclusive = small, poorly fitted or top-dose-only effect; inactive = flat fitted curve, though single readings scatter. No potency is given beside an inconclusive call; the fits are too rough. % is scaled to controls: 0 for no effect and ±100 for the full control effect; potency is read from the fitted curve at half-maximal effect; tags tell the direction and shape of the fitted curve."}
{"assay": "qHTS for Inhibitors of human tyrosyl-DNA phosphodiesterase 1 (TDP1): qHTS in cells in absence of CPT; also: nearly all actives have a fitted effect of over 55% in size", "settings": "DT40 Tdp1-/- hTDP1 cells, no CPT, ATP luminescence, 48 h; activity change, negative = growth inhibition: at 46.2 µM (top of the series) unless noted", "summary_of_the_method": "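Cells were dispensed at 400 per well, compounds added by pin tool, plates incubated ≥48 hr at 37 °C, then CellTiter-Glo added for 30 min at room temperature before luminescence reading. Line: DT40 Tdp1-/- complemented with hTDP1; camptothecin omitted.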"}
{"smiles": "O=C(Nc1cc(C(F)(F)F)ccc1Cl)c1cc(C2CC2)on1", "Potency": "inactive"}
{"smiles": "CCN(Cc1ccncc1)C(=O)c1ccc(Br)o1", "Potency": "inactive"}
{"smiles": "CC(=O)c1ccc(F)c(-c2cc(C)cc3c2OC(CNC(=O)Cc2c[nH]c4ccccc24)C3)c1", "note": "(centres undefined)", "Potency": "inconclusive [inhibitor, single point]"}
{"smiles": "COC(=O)c1sccc1NC(=O)c1cccnc1", "activity change, negative = growth inhibition": "inconclusive: -31.6% [inhibitor]"}
{"smiles": "Cc1nnc(NC(=O)c2ccc(S(=O)(=O)N3CCc4ccccc4C3)cc2)o1", "Potency": "inconclusive [inhibitor, single point]"}
{"smiles": "Cc1ccc(-n2c(C)cc(/C=C(\\C#N)C(=O)Nc3ccc(C)c(C)c3)c2C)cc1", "Potency": "inconclusive [inhibitor, partial curve]"}
{"smiles": "COc1ccc(NC(=O)C2(C)CCN2CCOc2ccc(C)cc2)cc1OC", "note": "(centres undefined)", "Potency": "inconclusive [inhibitor, single point]"}
{"smiles": "NC(Cc1ccc(C(F)(F)F)cc1)c1csc(NC(=O)Nc2ccccc2Cc2ccccc2)n1", "note": "(centres undefined)", "Potency": "active: 23.1 µM"}
{"smiles": "CCN(CC)C(=O)C1=C(C)Nc2nc3ccccc3n2C1c1cccc(OC)c1", "note": "(centres undefined)", "Potency": "inconclusive [inhibitor, partial curve]"}
{"smiles": "Cc1cc(=O)[nH]c(N/N=C/c2ccc(-c3ccc(F)cc3)o2)n1", "Potency": "active: 13 µM"}
{"smiles": "Cn1cccc1CC(=O)NNC(=S)NC(=O)c1ccccc1Br", "Potency": "inconclusive [inhibitor, single point]"}
{"smiles": "CC(NC(=O)c1ccc(S(=O)(=O)N(C)C)cc1)c1ccc(-n2ccnc2)cc1", "note": "(centres undefined)", "Potency": "inactive"}
{"smiles": "O=C(O)CC(CC(=O)Nc1ccc(-c2ccccc2)cc1)c1ccccc1", "note": "(centres undefined)", "Potency": "inactive"}
{"smiles": "Cn1c(=O)c2cc(NC(=S)NC3CCCCC3)ccc2n1-c1ccccc1", "Potency": "inconclusive [inhibitor, single point]"}
{"smiles": "COc1cccc(C(=O)c2c(-c3ccccc3)ncc3cc(OC)c(OC)cc23)c1", "Potency": "inconclusive [inhibitor, single point]"}
{"smiles": "COc1ccc(C(=O)Nc2ccc3oc(-c4cccc5c(Br)cccc45)nc3c2)cc1", "Potency": "inconclusive [inhibitor, full curve, poor fit]"}
{"smiles": "COc1ccc(C(=O)c2cc(C(C)=O)c(Nc3ccccc3)s2)cc1", "Potency": "active: 25.9 µM"}
{"smiles": "CN(C)c1cccc(C(=O)Nc2cccc(S(=O)(=O)NC3=NCCC3)c2)c1", "Potency": "inactive"}
{"smiles": "O=c1cc(CN2CCCc3ccccc32)nc2sccn12", "Potency": "inconclusive [inhibitor, partial curve]"}
{"smiles": "CC1CC(C)CN(CC(=O)N2CCCc3c2c(=O)oc2ccc(OCc4ccccc4)cc32)C1", "note": "(centres undefined)", "Potency": "active: 11.6 µM"}
{"smiles": "Cc1c(O)ccc2c(CN3CCN(CCO)CC3)cc(=O)oc12", "Potency": "inconclusive [inhibitor, full curve]"}
{"smiles": "Cc1ccc(S(=O)(=O)ON2C(=O)c3ccccc3C2=O)c(C)c1", "Potency": "active: 1.03 µM"}
{"smiles": "CC(C)(C)c1ccc(CN2N=Nc3ccccc3S2(=O)=O)cc1", "Potency": "active: 7.31 µM"}
{"smiles": "Cc1cc(OCC(=O)Nc2c(C(C)C)cccc2C(C)C)no1", "Potency": "active: 8.2 µM"}
{"smiles": "O=S1(=O)c2ccccc2N(Cc2ccccc2F)c2ccccc21", "Potency": "inactive"}
{"smiles": "Cc1ccccc1Cn1c(CN2CCC(C(=O)NCc3ccc(Cl)cc3)CC2)cc2ccccc21", "Potency": "inconclusive [inhibitor, single point]"}
{"smiles": "CC(=O)Nc1ccc(S(=O)(=O)N(C)c2ccc(OCC(=O)Nc3ccccc3C(C)=O)cc2)cc1", "Potency": "active: 20.6 µM"}
{"smiles": "O=C(Cc1ccc(Cl)cc1)Nc1ccncc1", "Potency": "active: 9.2 µM"}
{"smiles": "O=[N+]([O-])c1ccc2c(c1)c1ccccc1n2CCO", "Potency": "inconclusive [inhibitor, single point]"}
{"smiles": "O=C(CCSCCc1ccccn1)Nc1ccc(Br)cn1", "Potency": "inactive"}
{"smiles": "CCN(CC)CCCN(Cc1cc2cc(OC)ccc2[nH]c1=O)C(=O)Nc1ccccc1", "Potency": "inconclusive [inhibitor, single point]"}
{"smiles": "N#Cc1ccsc1NC(=O)c1ccccn1", "Potency": "inconclusive [inhibitor, single point]"}
{"smiles": "CN(C)c1ccc(C=NCCc2ccc(S(N)(=O)=O)cc2)cc1", "Potency": "inactive"}
{"smiles": "CC(C)CSc1n[nH]c(=S)s1", "Potency": "inactive"}
{"smiles": "CCCc1nc2ccccc2c(=O)n1CC(=O)c1ccc(OC)cc1", "Potency": "inconclusive [inhibitor, full curve, poor fit]"}
{"smiles": "CN1CCCN(C(=O)c2cccc3ccccc23)CC1", "Potency": "inactive"}
{"smiles": "COc1ccccc1C(=O)N/N=C(\\C)c1ccc(NC(=O)C2CC2)cc1", "Potency": "inactive"}
{"smiles": "C[C@H]1C=C(C(=O)O)O[C@@H](OCc2ccc(CO)cc2)C1", "Potency": "inactive"}
{"smiles": "CCOc1cc2oc(=O)c3c(c2cc1Cl)CCC3", "Potency": "inconclusive [inhibitor, full curve, poor fit]"}
{"smiles": "COC(=O)C1=C(C)N(CC2CCCO2)C(=O)C1", "note": "(centres undefined)", "Potency": "inactive"}
{"smiles": "O=C(NCc1cccc(Cl)c1)C1CCN(S(=O)(=O)c2ccc(F)cc2)CC1", "Potency": "inconclusive [inhibitor, single point]"}
{"smiles": "O=C(CCS(=O)(=O)Cc1ccccc1)Nc1nnc(C(F)(F)F)s1", "Potency": "inconclusive [inhibitor, single point]"}
{"smiles": "COc1ccc(CCNC(=O)c2ccc(-n3c(C)cc4c3CCC(C)C4)cc2)cc1OC", "note": "(centres undefined)", "Potency": "active: 20.6 µM"}
{"smiles": "Cc1cc(C)cc(NC(=O)COc2cccc3c(=O)n(C)ccc23)c1", "Potency": "inconclusive [inhibitor, single point]"}
{"smiles": "COCCN(CC(=O)Nc1cccc(C)c1C)C(=O)c1oc2c(Cl)cccc2c1C", "Potency": "inconclusive [inhibitor, single point]"}
{"smiles": "O=C(/C=C/c1cccc([N+](=O)[O-])c1)NCCSCc1ccco1", "Potency": "inconclusive [inhibitor, partial curve]"}
{"smiles": "COc1ccc(NC(=O)C2C3C=CC(C3)C2C(=O)NCc2ccco2)c(OC)c1", "note": "(centres undefined)", "Potency": "inactive"}
{"smiles": "Cc1ccc(NC(=S)NC2CCN(Cc3ccccc3)CC2)cc1", "Potency": "inconclusive [inhibitor, partial curve, poor fit]"}
{"smiles": "CCN(CC)C(=O)CSc1nc(O)c(Cc2ccccc2)c(=O)n1-c1ccccc1", "Potency": "inconclusive [inhibitor, partial curve]"}
